From PubChem BioAssay AID504339 (National Center for Advancing Translational Sciences (NCATS), 2011)
Among all 390,000 compounds or so, about 17,000 (4.4%) were called active. Inconclusive results, whose numbers are uncertain, are shown with a selection of clear calls. The call rests on the fitted dose curve; in most records, active means well fitted inhibition curve with a large enough effect; inconclusive means small, poorly fitted or top-dose-only effect; inactive means no such curve, though single readings can be large or run the other way. Potencies of inconclusive entries are doubtful fits and often do not repeat.
Further: nearly all actives have a fitted effect of over 50% in size.
On the % scale 0 is the no-effect control and ±100 the full control effect; potency means the concentration at half of the fitted maximal effect; tags describe the fitted curve by direction and shape.

What follows are compounds tested against Lysine-specific demethylase 4A (Homo sapiens) (UniProt O75164) (assay: qHTS Assay for Inhibitors of JMJD2A-Tudor Domain). Settings: AlphaScreen JMJD2A-Tudor / H3K4me3 peptide binding; activity change, negative = inhibition: at 114 µM (top of the series).
UniProt O75164, sequence (O75164 whole entry, looked up, the tested form may be a part): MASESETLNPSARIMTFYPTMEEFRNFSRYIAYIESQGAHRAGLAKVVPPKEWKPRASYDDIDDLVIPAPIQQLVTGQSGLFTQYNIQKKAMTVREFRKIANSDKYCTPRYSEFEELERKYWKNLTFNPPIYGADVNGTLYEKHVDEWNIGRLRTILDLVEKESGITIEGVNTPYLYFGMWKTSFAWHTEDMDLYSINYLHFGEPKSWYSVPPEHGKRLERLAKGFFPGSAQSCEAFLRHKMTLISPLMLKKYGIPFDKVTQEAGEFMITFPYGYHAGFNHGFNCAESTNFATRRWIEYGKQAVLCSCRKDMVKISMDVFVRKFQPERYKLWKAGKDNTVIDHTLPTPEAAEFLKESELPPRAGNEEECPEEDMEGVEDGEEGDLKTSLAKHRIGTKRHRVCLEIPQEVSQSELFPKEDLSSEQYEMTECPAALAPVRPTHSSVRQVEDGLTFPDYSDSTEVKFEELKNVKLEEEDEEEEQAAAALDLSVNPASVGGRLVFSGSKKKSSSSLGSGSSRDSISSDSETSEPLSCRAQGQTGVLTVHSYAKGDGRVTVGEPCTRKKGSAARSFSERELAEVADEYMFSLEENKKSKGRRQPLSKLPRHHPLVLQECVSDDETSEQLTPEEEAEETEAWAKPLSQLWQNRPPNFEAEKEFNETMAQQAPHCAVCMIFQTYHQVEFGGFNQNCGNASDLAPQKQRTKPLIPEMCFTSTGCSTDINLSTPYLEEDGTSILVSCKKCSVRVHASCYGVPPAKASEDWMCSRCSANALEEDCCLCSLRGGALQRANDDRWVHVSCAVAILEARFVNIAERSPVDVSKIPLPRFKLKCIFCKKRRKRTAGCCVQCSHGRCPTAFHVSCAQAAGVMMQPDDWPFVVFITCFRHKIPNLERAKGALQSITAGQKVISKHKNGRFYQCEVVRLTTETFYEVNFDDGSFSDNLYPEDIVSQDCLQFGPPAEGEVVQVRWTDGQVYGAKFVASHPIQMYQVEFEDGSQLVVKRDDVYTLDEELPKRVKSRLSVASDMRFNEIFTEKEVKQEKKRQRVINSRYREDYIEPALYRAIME
For COc1ccccc1-c1cc(C(=O)NCCN2CCOCC2)no1, the Potency was “inactive”.
For O=C(NCc1ccco1)c1nnc(Cc2ccc(F)cc2)o1, the Potency was “inactive”.
For O=C(O)c1ccc(C=C(c2nc3ccccc3s2)c2nc3ccccc3s2)cc1, the activity change, negative = inhibition was inconclusive: -43.5% [inhibitor].
For O=C(CCN1C(=O)/C(=C\C=C\c2ccccc2)SC1=S)Nc1ccc(C(=O)O)cc1, the Potency was active: 22.4 µM.
In the case of CCc1nnc(NS(=O)(=O)c2ccc(NC(=S)NC(=O)c3ccc(F)cc3)cc2)s1, the Potency was “inactive”.
With Cc1ccc(Cl)cc1N1CCN(C(=O)CCCn2c(=O)c3cccn3c3cccnc32)CC1 the Potency was inconclusive: 8.91 µM [inhibitor, full curve, poor fit].
In the case of O=C(NCc1ccco1)c1c2c(nc3ccccc13)CCC2, the Potency was inconclusive: 5.01 µM [inhibitor, single point].
With CCC(CO)n1c(=S)[nH]c2cc(OC)c(OC)cc2c1=O (configuration not stated) the Potency was active: 25.1 µM.
In the case of Cc1ccc(C)c(Nc2nc3c(S(=O)(=O)c4ccc(Br)cc4)nnn3c3ccsc23)c1, the Potency was active: 56.2 µM.
CCN1CCN(c2c(S(=O)(=O)c3ccc(Cl)cc3)cnc3ccccc23)CC1 was tested, and the Potency was “inactive”.
For CC(NC(=O)c1ccc(Cn2c(=O)c3cccn3c3cccnc32)cc1)c1ccccc1 (configuration not stated), the Potency was “inactive”.
For O=c1c2ccccc2nc2n1CC/C2=C\N1CCN(c2ccc([N+](=O)[O-])cc2)CC1, the Potency was inconclusive: 1.12 µM [inhibitor, full curve].
For CCOC(=O)Cc1c(C)nc2c(-c3ccccc3)c(-c3ccccc3)[nH]n2c1=O, the Potency was “inactive”.
With Cn1ncc([N+](=O)[O-])c1C(=O)Nc1nc2ccccc2n1CCN1CCCCC1 the Potency was inconclusive: 56.2 µM [inhibitor, partial curve, poor fit].
In the case of COc1cc(NC(=O)NC(C)c2c(-n3cccc3)sc3c2CCN(C)C3)cc(OC)c1 (configuration not stated), the Potency was inconclusive: 56.2 µM [inhibitor, partial curve].
With Clc1cccc(Cl)c1CNc1ccc(N2CCCC2)cc1 the Potency was active: 17.8 µM.
In the case of CCc1ccc(S(=O)(=O)NCc2nc3cccnc3n2Cc2ccccc2Cl)cc1, the Potency was “inactive”.
In the case of Cc1ccc(C(O)c2nccn2C)o1 (configuration not stated), the Potency was inconclusive: 79.4 µM [inhibitor, partial curve].
With COc1cccc(NC(=O)COC(=O)CCCc2c[nH]c3ccccc23)c1 the Potency was inconclusive: 39.8 µM [inhibitor, partial curve].
In the case of O=C(CCSCc1cccc(F)c1)NCc1ccccc1, the Potency was “inactive”.
For Cc1ccc(N=C2SCCCN2C(=O)C2=COCCO2)cc1Cl, the Potency was inconclusive: 17.8 µM [inhibitor, single point].
With CCOc1ccc(-n2cc(-c3ccccc3)c3c(N4CCC(C)CC4)ncnc32)cc1 the Potency was “inactive”.
CC(=O)c1sc(N/N=C\c2c(O)ccc3ccccc23)nc1C was tested, and the Potency was inconclusive: 35.5 µM [inhibitor, partial curve].
In the case of O=c1oc2ccc(Cl)cc2nc1/C=C(\O)c1ccco1, the Potency was active: 89.1 µM.
In the case of O=C(O)c1cc(S(=O)(=O)Nc2ccc3oc(=O)sc3c2)ccc1O, the Potency was inconclusive: 89.1 µM [inhibitor, single point].
In the case of COc1ccc(N=C2S/C(=C\c3cc(C)n(C)c3C)C(=O)N2C)cc1, the Potency was inconclusive: 10 µM [inhibitor, full curve, poor fit].
For CCO/C=N/Nc1nc(C(F)(F)F)nc2c1cnn2Cc1ccccc1, the Potency was inconclusive: 39.8 µM [inhibitor, partial curve].
With CCC1(C)Cc2c(sc3nc(NC)n(C)c(=O)c23)CO1 (configuration not stated) the Potency was inconclusive: 20 µM [inhibitor, full curve].
Cc1c(NC(=O)CN2CCCc3ccccc32)c(=O)n(-c2ccccc2)n1C was tested, and the Potency was inconclusive: 7.08 µM [inhibitor, partial curve, poor fit].
CCOC(=O)c1ccc(N2C(=O)c3n[nH]c(-c4cccs4)c3C2c2cccc(OC)c2)cc1 (configuration not stated) was tested, and the Potency was inconclusive: 25.1 µM [inhibitor, full curve].
For Cc1ccsc1/C=N/n1c(-c2ccccc2)n[nH]c1=S, the Potency was active: 28.2 µM.
In the case of COc1ccc(CC(=O)Nc2cc(-c3nc4cccnc4s3)ccc2C)cc1, the Potency was inconclusive: 79.4 µM [inhibitor, partial curve].
In the case of CCCCCCSc1cc(-c2nc3cnccn3c2NCCCC)ccc1OC, the Potency was inconclusive: 50.1 µM [inhibitor, partial curve].
C=C(C)C(=O)Nc1cccc(C2=NOC3(C2)C[C@@H](C(N)=O)N(C(=O)/C(C)=C/C)C3)c1 (some centres not stated) was tested, and the Potency was active: 3.16 µM.
For Cn1c(SCC(=O)c2ccc3c(c2)OCO3)nnc1C1COc2ccccc2O1 (configuration not stated), the Potency was active: 50.1 µM.
With O=C(Cc1ccc(Cl)cc1)NCCc1cnc[nH]1 the Potency was “inactive”.
For COC(=O)[C@]1(C)N[C@H](CN(C)C(=O)NC(C)C)[C@@H]2C(=O)N(Cc3ccccc3)C(=O)[C@@H]21, the Potency was inconclusive: 89.1 µM [inhibitor, single point].
For Cc1c(C=O)c(Cl)n(C)c(=O)c1C#N, the Potency was active: 79.4 µM.
Nc1cc(N)nc(SCc2cc(=O)oc3cc4c(cc23)CCC4)n1 was tested, and the Potency was inconclusive: 39.8 µM [inhibitor, single point].
With CCOc1ccc(NC(=O)CCc2c(C)nn(-c3ccc(N4CCCCC4)nn3)c2C)cc1 the Potency was inconclusive: 15.8 µM [inhibitor, full curve, poor fit].
For CCn1c(C)c(C)c2cc(C(=O)N3CCN(c4cccc(C)c4C)CC3)ccc21, the Potency was active: 31.6 µM.
With CC#CCCC(=O)N1C=Cc2ccccc2C1C#N (configuration not stated) the activity change, negative = inhibition was inactive: -14.5% [at 11.4 µM].
For COc1cccc(-c2nn(C)c3sc(C(=O)N4CCN(c5ccccc5)CC4)cc23)c1, the Potency was inconclusive: 39.8 µM [inhibitor, partial curve].
With CN(C)c1ccc(/C=C/C(=O)c2cc(Cl)ccc2O)cc1 the Potency was active: 12.6 µM.
O=C(COC(=O)c1ccccn1)Nc1cccnc1Cl was tested, and the activity change, negative = inhibition was inconclusive: -64.1% [inhibitor].
With Cc1ccc2[nH]c(C(=O)NN=C3CCCCC3)c(-c3ccccc3)c2c1 the Potency was inconclusive: 89.1 µM [inhibitor, partial curve].
Cc1ccn2c(Nc3c(C)cccc3C)c(-c3ccc(Cl)s3)nc2c1 was tested, and the Potency was inconclusive: 39.8 µM [inhibitor, partial curve].
